55 molecules from ChEMBL document CHEMBL4888484, “Replenishing the malaria drug discovery pipeline: Screening and hit evaluation of the MMV Hit Generation Library 1 (HGL1) against asexual blood stage Plasmodium falciparum ,using a nano luciferase reporter read-out” (2022) can be followed below.

Screen size: about 150,000 compounds; about 540 (0.36%) showed an effect of 50% or more. Some of the results follow.

The term % Inhibition denotes the relative decrease from the control value, in per cent.

The test system of the experiment is Plasmodium falciparum. The experiment in a line: Primary screen in NF54 nanoGlo assay, in single point, at 2uM, 72h; a lower Z score goes with more inhibition. Type of experiment: functional, Erythrocyte. The conditions noted are these: timepoint 72 hour.
On to `CC(C)N1CCN(C(=O)c2cc3[nH]cnc3cc2F)CC1`, for which the “% Inhibition” value was -8% and the Z score amounted to 1.11.

As to `CC(C)(C)NC(=O)N1CCNC(=O)C1(C)C`, the “% Inhibition” value is -8% and the Z score amounted to 1.11.

As for `COc1ccc(F)c(CN2CCC[C@@](CO)(CC3CC3)C2)c1`, the “% Inhibition” value was -6% and the Z score came out at 1.08.

Take `O=C(N[C@H]1C[C@H]2C(=O)N3CCC[C@@H]3C(=O)N2C1)c1ccc(C(F)(F)F)cc1`: the “% Inhibition” value is recorded as -21% and the Z score is on record as 2.49.

With `CN(C)C(=O)c1ccc(=O)n(Cc2cc(F)ccc2OC(F)F)c1`, the “% Inhibition” value worked out at 4% and the Z score was -0.77.

As to `Brc1ccc(-c2csc(Cc3nc(-c4ccc(Br)cc4)cs3)n2)cc1`, the “% Inhibition” value is -3% and the Z score is reported as 0.3.

Turning to `Cc1cnc(C)c(N2CCC(n3c(=O)[nH]c4ccccc43)CC2)n1`, the “% Inhibition” value is -6% and the Z score is listed as 1.15.

With `O=C(N[C@H]1C[C@@H](O)C1)c1cc2c(F)c(Br)ccc2[nH]1`, the “% Inhibition” value is on record as -8% and the Z score came out at 0.99.

With `CCc1n[nH]c(NC(=O)c2cc(Br)cnc2C2CC2)n1`, the “% Inhibition” value is given as -4% and the Z score worked out at 0.69.

Regarding `CNC(=O)c1cccc(-n2ccnc2-c2ncc[nH]2)c1`, the “% Inhibition” value was -16% and the Z score is reported as 1.81.

As for `O=C(CCc1nnn2c1CN(C(=O)Nc1cccc(F)c1)CC2)N1CCOCC1`, the “% Inhibition” value was -4% and the Z score stood at 0.81.

In the case of `COc1ccc(CCNC(=O)N2CCC(Oc3ccncc3Cl)CC2)cc1`, the “% Inhibition” value is recorded as -14% and the Z score is on record as 2.62.

`CC1=C(C(=O)Nc2ccccc2)C(c2ccc(Cl)cc2)C(C(=O)Nc2ccccc2)=C(C)N1`: the “% Inhibition” value was -3% and the Z score amounted to 0.37.

`O=C(Cc1cccc2ccccc12)Nc1ccc(Oc2ccccc2)cc1`: the “% Inhibition” value is recorded as 1% and the Z score is -0.29.

Turning to `O=C(Nc1cnc(N2CCCCCC2)nc1)C1CCCC1`, the “% Inhibition” value is listed as -11% and the Z score worked out at 1.82.

`Cc1noc([C@@H]2CN(S(=O)(=O)c3ccc4c(c3)CCCC4)C[C@H]2C(N)=O)n1`: the “% Inhibition” value is -5% and the Z score amounted to 0.79.

Take `CCc1nn(CCS(=O)(=O)N(C)C)c(=O)c(C#N)c1CC`: the “% Inhibition” value came to 24% and the Z score was -3.21.

On to `O=C(NCc1ccccc1)[C@@H]1CCCCn2nnnc21`, for which the “% Inhibition” value is recorded as -16% and the Z score is 1.85.

Turning to `NS(=O)(=O)c1cccc(S(F)(F)(F)(F)F)c1`, the “% Inhibition” value is on record as -18% and the Z score was determined as 1.96.

Turning to `O=C(NCc1ccccc1C(F)(F)F)[C@H]1CCCN(c2ncnc3nn(-c4ccc(F)cc4)cc23)C1`, the “% Inhibition” value is given as -3% and the Z score stood at 0.3.

Turning to `C[C@@H](Cc1ccco1)NC(=O)NCCn1ccnc1`, the “% Inhibition” value is listed as -9% and the Z score is 1.09.

For the molecule `CN(Cc1noc2c1CCCC2)C1CCN(c2nc3ccccc3o2)CC1`, the “% Inhibition” value is -11% and the Z score was 1.54.

For the molecule `CNC(=O)[C@@H](NC(=O)CNC(=O)c1ccc(Cl)cc1)C(C)(C)C`, the “% Inhibition” value is reported as 38% and the Z score is -4.91.

For `CCCC(=O)N1CCCC(C(=O)N2CCCCC2C(=O)N2CCOCC2)C1` (stereo not given), the “% Inhibition” value amounted to 5% and the Z score is -0.75.

As for `Cc1cccc(NC(=O)N2CCS(=O)(=O)C[C@H]2C2CCC2)c1`, the “% Inhibition” value is given as -12% and the Z score was found to be 1.61.

`O=C(NCC(O)c1ccccc1Cl)C1CCCN1` (stereo not given): the “% Inhibition” value amounted to 1% and the Z score is -0.1.

As for `CCC(CC)n1ccc(C(=O)OCC2CCOCC2)n1`, the “% Inhibition” value was -4% and the Z score worked out at 0.39.

With `COc1ccnc(-c2cccc(C(=O)NCCN3CCCC[C@@H]3CO)c2)n1`, the “% Inhibition” value was -5% and the Z score was found to be 0.93.

Take `CC1=C(C(=O)N(Cc2ccncc2)C2CCCCC2)OCCO1`: the “% Inhibition” value amounted to 4% and the Z score was -0.61.

Consider `COc1nccnc1NCCc1nc(C(C)C)cs1`, for which the “% Inhibition” value is 9% and the Z score is -1.37.

Consider `COC(=O)[C@H]1C[C@@H](C(=O)NCc2cccc(OC)c2)[C@@H](c2ccccc2F)N1C`, for which the “% Inhibition” value came out at 7% and the Z score is on record as -0.98.

For the molecule `FCC1CN(Cc2cccc3cn[nH]c23)C1`, the “% Inhibition” value is listed as -6% and the Z score amounted to 1.11.

On to `C[C@@H](COc1ccccc1F)NC(=O)NC(C(N)=O)C(N)=O`, for which the “% Inhibition” value is listed as -1% and the Z score was 0.07.

`O=C(Nc1ccc(F)cc1)c1nn[nH]c1NS(=O)(=O)c1ccccc1`: the “% Inhibition” value is recorded as 31% and the Z score is listed as -3.46.

For the molecule `CC(C)C(=O)N[C@@H](N1CCOCC1)C(Cl)(Cl)Cl`, the “% Inhibition” value was -5% and the Z score worked out at 1.

For the molecule `CCCCc1oc2ccccc2c1CN1CCC(C(=O)N2CCCC2)CC1`, the “% Inhibition” value was -8% and the Z score is 0.97.

For the molecule `COc1ccc(Cl)cc1C(=O)N1CCC(N2CC(=O)N(C3CC3)C2=O)CC1`, the “% Inhibition” value is -13% and the Z score was found to be 1.5.

`CCn1nc(C)nc1NC(=O)[C@H]1C2CCC(CC2)[C@@H]1C(F)(F)F`: the “% Inhibition” value is -13% and the Z score is recorded as 1.81.

Take `Nc1nc(NCc2ccc(S(N)(=O)=O)cc2)cc([C@H]2CCOC2)n1`: the “% Inhibition” value is -14% and the Z score came to 1.47.

With `O=C1N(CC2CCCCC2)CCC[C@@]1(O)CN[C@H]1CC[C@H](O)CC1`, the “% Inhibition” value turned out to be 4% and the Z score is -0.53.

In the case of `CCc1ccc(O[C@@H](C)C(=O)OC)c(COc2ccc(-n3c(=O)cc(C(F)(F)F)n(C)c3=O)cc2)c1`, the “% Inhibition” value came to 39% and the Z score is recorded as -1.12.

`O=C(O)C1(Oc2ccc3ncccc3c2)CCN(Cc2ccoc2)CC1`: the “% Inhibition” value is on record as -9% and the Z score is given as 1.15.

As to `CCN(CC)Cc1nc(-c2cc(OCC(F)F)ccn2)no1`, the “% Inhibition” value came to 0% and the Z score stood at 0.01.

Consider `Cc1nc(CNc2ccn(CCCC(=O)N(C)C)n2)cs1`, for which the “% Inhibition” value is on record as -7% and the Z score worked out at 1.06.

As for `Cc1cc(C(=O)NCc2ccc(OC(C)(C)C)nc2)n(C)n1`, the “% Inhibition” value is given as -6% and the Z score worked out at 0.47.

Consider `CN(C)[C@H]1CCC[C@@H]1Nc1nccs1`, for which the “% Inhibition” value is listed as -3% and the Z score is reported as 0.66.

For `Cc1ccc(-c2noc(-c3cn(Cc4ccc(NC(=O)Nc5ccc(C)cc5C)cc4)cn3)n2)cc1`, the “% Inhibition” value is on record as -11% and the Z score came to 1.46.

Regarding `O=C(Nc1ccc(Cl)cn1)c1ccc2nsnc2c1`, the “% Inhibition” value stood at 10% and the Z score is -1.25.

For the molecule `O=C(NCc1nnc2ccccn12)c1ccc2c(c1)OCO2`, the “% Inhibition” value is -6% and the Z score is on record as 1.03.

With `C=CCn1nnnc1CCCc1ccccc1`, the “% Inhibition” value was determined as 0% and the Z score came out at 0.01.

As to `Cn1cncc1CNCc1ccc2c(c1)CN(C(=O)OC(C)(C)C)C2`, the “% Inhibition” value is reported as -8% and the Z score came out at 1.07.

With `O=C(NC[C@H]1CCCOC1)C1CN(CC(F)F)C1`, the “% Inhibition” value is on record as -12% and the Z score came to 2.01.

With `Cc1nc(C)c(CCNc2ccc(F)cn2)s1`, the “% Inhibition” value came to 1% and the Z score is reported as -0.15.

As for `CCCn1cc(S(=O)(=O)NCc2ccnc(C)c2)cn1`, the “% Inhibition” value is given as -3% and the Z score is listed as 0.61.

Take `CC(C)c1cc(CN[C@@H](C)c2ccc(-n3cnnn3)cc2)on1`: the “% Inhibition” value is given as -6% and the Z score was 1.15.
